{"source": "PubChem BioAssay AID924", "about": "(National Center for Advancing Translational Sciences (NCATS), 2007)", "note": "Among all 130,000 compounds or so, about 1,200 (0.92%) were called active. This list was built around the results that the source calls inconclusive (neither active nor inactive); the mix of calls is not that of the screen. The call rests on the fitted dose curve; in most records, active means well fitted cell-killing curve with a large enough effect; inconclusive means small, poorly fitted or top-dose-only effect; inactive means no such curve, though single readings can be large or run the other way. Potencies of inconclusive entries are doubtful fits and often do not repeat. A structure can be active in one record and inactive in another.", "data": [{"experiment": "qHTS Screen for Compounds that Selectively Target Cancer Cells with p53 Mutations: Cytotoxicity of p53ts Cells at the Permissive Temperature; further: nearly all actives have a fitted effect of over 55% in size; further: potency means the concentration at half of the fitted maximal effect; tags describe the fitted curve by direction and shape;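 on activity change, negative = cytotoxicity: 0% = DMSO and -100% = full killing by reference compound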", "settings": "H1299-p53A138V at 32C, ATP luminescence viability, 24 h; activity change, negative = cytotoxicity: at 46.1 µM (top of the series)", "text": "NIH Chemical Genomics Center [NCGC] NIH Molecular Libraries Screening Centers Network [MLSCN] MLSCN Grant: 1 X01 MH079844-01 Assay Submitter (PI): Dr. SUN, YI, University of Michigan NCGC Assay Overview: Synthetic Lethal Screen for Compounds to Kill Cancer Cells with p53 Mutation. Tumor suppressor gene p53 serves as a major cellular barrier against tumorigenesis. […] The goal of this screening is to identify small molecule probes that selectively kill cancer cells with mutations in p53. This screening was carried out using two lines of H1299 lung cancer cells. The H1299-p53 A138V line express a temperature sensitive p53 mutant (p53ts) in which the mutant p53 protein (A138V) is in the mutant confirmation when grown at 39C (the nonpermissive temperature) and in the wild type conformation when grown at 32C (the permissive temperature). A H1299-neo line (p53 null) grown at both 39C and 32C were used as counter-screens to filter out false positive associated with temperature shifting. The small molecular compounds that selectively target mutant p53-containing cancer cells were selected as candidate probes for further study. A cytotoxicity assay based on the measurement of ATP contents in cells was used in this screen. Concentration-responses of all the compounds in the library collection were determined in qHTS using the cell lines and temperature conditions as above.\nNCGC Assay Protocol Summary: Both the H1299-p53A138V and H1299-neo cell lines were provided by Dr.Yi Sun, a PI at the University Michigan. The cells were maintained and cultured at 37C. The resuspended frozen cells were used to plate the cells in the 1536-well assay plates at a density of 600 cells per well in 5 ul medium. The assay plates with the cells were incubated at 37C for 16 to 30 hours before the experiments. The library compounds in DMSO solution were added to the cells in assay plates and incubated 24 hours at 39C (for mutant p53 conformation) or 32C (for normal p53 conformation as control). An ATP_lite assay kit (PerkinElmer) was used to determine the cell viability. Tomaxifen (100uM) was used as the positive control for cell killing. Data were normalized to the controls for basal activity (DMSO only) and 100% killing (100uM tamoxifen). AC50 values were determined from concentration-response data modeled with the standard Hill equation. P53 assay protocol: 1. Reagent; 5 uL H1299-p53A138V or H1299-neo cell cells/well 2. Time; overnight; 37C incubation 3. Compounds; 23 nL; 5.9 nM to 46 uM 4. Controls; 23 nL; Tamoxifen 100 uM 5. Time; 24 hr; 37C incubation 6. Reagent; 3 uL; ATP_Lite reagent 7. Time; 20 min; Room Temperature 8. Detection; Luminescence; Viewlux plate reader Keywords: p53, synthetic lethal, cancer, cell viability, cytotoxicity, H1299 cell line, luminescence, MLSMR, MLSCN, NIH Roadmap, qHTS, NCGC", "values": [{"compound": "CC1CCCN(C(=O)COC(=O)c2n[nH]c3ccccc23)C1", "note": "(centres undefined)", "Potency": "inconclusive: 10 µM [cytotoxic, partial curve]"}, {"compound": "CN(C)c1ncc2nc(-c3cc(F)cc(F)c3)c(=O)n(-c3ccccc3)c2n1", "activity change, negative = cytotoxicity": "inactive: 5.32%"}, {"compound": "O[C@@H](c1cc(C(F)(F)F)nc2c(Cl)cc(Cl)cc12)[C@@H]1CCCCN1", "activity change, negative = cytotoxicity": "inactive: 16.7% [at 9.22 µM]"}, {"compound": "Cc1ccc(OCC(=O)Nc2cccc(-c3nc4ccccc4s3)c2)cc1", "Potency": "inconclusive: 12.6 µM [cytotoxic, partial curve]"}, {"compound": "CCOC(=O)C1(N(CC)CC)Sc2cc(C)ccc2NC1=O", "note": "(centres undefined)", "activity change, negative = cytotoxicity": "inactive: -17.5%"}, {"compound": "Cc1cccc(CSC2=NCCN2C(=O)c2ccc(Br)o2)c1", "activity change, negative = cytotoxicity": "inactive: -2.73%"}, {"compound": "COc1cc2c(=O)n(Cc3ccccc3Cl)c(=O)n(CC(=O)Nc3ccc(C)c(C)c3)c2cc1OC", "activity change, negative = cytotoxicity": "inactive: 3.85%"}, {"compound": "C[C@@H]1Oc2ccc(C(=O)C[C@@H](C(=O)O)c3ccc4c(c3)OCO4)cc2O1", "activity change, negative = cytotoxicity": "inactive: 1.16% [at 9.22 µM]"}, {"compound": "COc1ccc2c(c1)CCc1c(C(=O)N3CCOCC3)noc1-2", "Potency": "inconclusive: 31.6 µM [cytotoxic, single point]"}, {"compound": "Cc1cc(NC(=O)c2ccc(Cl)cc2)no1", "Potency": "active: 7.94 µM"}, {"compound": "CCC(=O)Nc1cccc(-c2nc3ccccc3c(=O)o2)c1", "Potency": "active: 12.6 µM"}, {"compound": "Cc1ccc2[nH]cc(C(c3ccccc3)c3ccc(C)s3)c2c1", "note": "(centres undefined)", "Potency": "inconclusive: 15.8 µM [cytotoxic, single point]"}, {"compound": "CCOC(=O)c1ccc(-c2ccc(/C=C(\\C#N)c3nc4ccc(C)cc4[nH]3)o2)cc1", "Potency": "inconclusive: 3.16 µM [cytotoxic, full curve]"}, {"compound": "CCCCCCCCCCCCCCCCCC(=O)NC[C@@H](COP(=O)([O-])OCC[N+](C)(C)C)OCC", "Potency": "inconclusive: 25.1 µM [cytotoxic, single point]"}, {"compound": "COc1cccc(-c2noc(-c3cccs3)n2)c1", "Potency": "inconclusive: 15.8 µM [cytotoxic, single point]"}, {"compound": "COc1c(O)cc2oc3cc(O)c(CC=C(C)C)c(O)c3c(=O)c2c1CC=C(C)C", "Potency": "active: 10 µM"}, {"compound": "COc1ccc(-c2cn3nc(N4CCCC(C(=O)Nc5ccccc5OC)C4)sc3n2)cc1", "note": "(centres undefined)", "Potency": "inconclusive: 25.1 µM [cytotoxic, single point]"}, {"compound": "Cc1cc(=O)c2c(O)c(O)ccc2o1", "Potency": "inconclusive: 31.6 µM [cytotoxic, single point]"}, {"compound": "Cc1ccc(C(=O)Nc2ccc(Cl)cn2)cc1", "Potency": "active: 7.94 µM"}, {"compound": "CCCCNC(=O)C(c1ccc(OCC(=O)OC)c(C(=O)OC)c1)N(Cc1ccccn1)C(=O)CCCCCN1C(=O)NC(c2ccc(-c3ccccc3)cc2)C(C(=O)OCc2ccccc2)=C1C", "note": "(centres undefined)", "Potency": "inconclusive: 31.6 µM [cytotoxic, single point]"}, {"compound": "CN(c1ccccc1)S(=O)(=O)c1nnc(NC(=O)COc2ccccc2)s1", "Potency": "inconclusive: 0.398 µM [cytotoxic, partial curve, poor fit]"}, {"compound": "O=C(Nc1ccc2c(c1)OCCO2)c1ccc(Br)c(S(=O)(=O)N2CCOCC2)c1", "Potency": "inconclusive: 25.1 µM [cytotoxic, single point]"}, {"compound": "CCOC(=O)C1CCN(c2c(C(=O)c3ccc(OC)cc3)cnc3ccccc23)CC1", "Potency": "inconclusive: 31.6 µM [cytotoxic, single point]"}, {"compound": "C=C1C(=O)O[C@@H]2[C@H]3O[C@]3(C)CCC=C(C)CC[C@@H]12", "Potency": "active: 12.6 µM"}, {"compound": "Cc1ccc2nc(-c3cccc(NC(=O)c4ccc(Br)o4)c3)oc2c1", "Potency": "inconclusive: 31.6 µM [cytotoxic, single point]"}, {"compound": "OC[C@H](CCc1c[nH]c2ccccc12)c1c[nH]c2ccccc12", "activity change, negative = cytotoxicity": "inactive: 30.2% [at 9.22 µM]"}, {"compound": "Cc1ccc(O)c(NC(=O)c2noc3c2CCCC3)c1", "Potency": "inconclusive: 20 µM [cytotoxic, partial curve, poor fit]"}, {"compound": "Cc1ccc(CNC(=O)Nc2cccs2)cc1", "Potency": "inconclusive: 20 µM [cytotoxic, single point]"}, {"compound": "COc1ccccc1NCc1cccn1-c1nnc(N2CCCCCC2)s1", "Potency": "inconclusive: 10 µM [cytotoxic, partial curve]"}, {"compound": "COc1ccccc1-c1ccc(NC2CCCCC2)nn1", "Potency": "inconclusive: 15.8 µM [cytotoxic, single point]"}, {"compound": "Cc1ccnc(Nc2nc(-c3c(C)nc4sccn34)cs2)c1", "Potency": "inconclusive: 25.1 µM [cytotoxic, partial curve]"}, {"compound": "Fc1ccc(-n2ncc3c(N4CCCCCC4)ncnc32)cc1", "Potency": "inconclusive: 5.01 µM [cytotoxic, partial curve]"}, {"compound": "COc1ccc(NC(=O)c2ccco2)cc1NC(=O)COc1ccc(Cl)c(C)c1", "Potency": "inconclusive: 12.6 µM [cytotoxic, single point]"}, {"compound": "Cc1cc(NC(=O)c2ccccc2)ncc1NC(=O)c1ccco1", "Potency": "inconclusive: 12.6 µM [cytotoxic, partial curve]"}, {"compound": "OC1CCC2Cc3ccccc3N=C12", "note": "(centres undefined)", "activity change, negative = cytotoxicity": "inactive: 1.1%"}, {"compound": "CCOc1ccccc1CNC(=O)c1ccc2c(c1)nc1n2CCCCC1", "Potency": "inconclusive: 5.62 µM [cytotoxic, partial curve]"}, {"compound": "CCOc1ccc(N2C(=O)c3n[nH]c(-c4cccs4)c3C2c2cccc(F)c2)cc1", "note": "(centres undefined)", "Potency": "inconclusive: 35.5 µM [cytotoxic, single point]"}, {"compound": "CCc1nnc(NC(=O)c2cccc(OC)c2)s1", "Potency": "active: 12.6 µM"}, {"compound": "CCN(CC)c1ccc2c(c1)oc(=O)c1c(Cl)cc(=O)oc12", "Potency": "active: 12.6 µM"}, {"compound": "COC(=O)c1[nH]c2ccc(Br)cc2c1NC(=O)CN1CCN(C2CCCCC2)CC1", "Potency": "inconclusive: 20 µM [cytotoxic, single point]"}, {"compound": "Cc1nc(SC(C)C(=O)Nc2ccccc2Cl)cc(-c2ccccc2)n1", "note": "(centres undefined)", "Potency": "inconclusive: 15.8 µM [cytotoxic, single point]"}, {"compound": "CCC(Oc1ccccc1F)C(=O)N1CCC(c2nc3ccccc3s2)CC1", "note": "(centres undefined)", "Potency": "inconclusive: 15.8 µM [cytotoxic, single point]"}, {"compound": "O=C(O)c1ccc2nc(-c3cc4cccc(O)c4oc3=O)[nH]c2c1", "Potency": "active: 10 µM"}, {"compound": "CCn1c(-c2ccco2)nc2ccccc21", "Potency": "inconclusive: 10 µM [cytotoxic, partial curve]"}, {"compound": "COC(=O)c1ccc(-c2nc(-c3cccs3)no2)cc1", "Potency": "inconclusive: 15.8 µM [cytotoxic, partial curve]"}, {"compound": "CCN(CCCNC(=O)C1CCN(S(=O)(=O)c2cccc3nonc23)CC1)Cc1ccccc1", "activity change, negative = cytotoxicity": "inactive: 3.53%"}, {"compound": "Brc1ccc(-c2nc3ccccn3c2Nc2ccc3c(c2)OCCO3)o1", "Potency": "inconclusive: 14.1 µM [cytotoxic, partial curve, poor fit]"}, {"compound": "CCOC(=O)N1CCN(Cc2nc3cc(NC(=O)c4ccccc4[N+](=O)[O-])ccc3n2C(C)C)CC1", "Potency": "inconclusive: 3.55 µM [cytotoxic, single point]"}, {"compound": "NC(=O)C1CCN(C(=O)c2cccc(NC(=O)c3nsc4ccccc34)c2)CC1", "Potency": "inconclusive: 20 µM [cytotoxic, single point]"}, {"compound": "CCCN(CCC)CC(O)Cn1cc(/C=C/C(=O)c2ccc(C)cc2)c2ccccc21", "note": "(centres undefined)", "Potency": "inconclusive: 20 µM [cytotoxic, single point]"}, {"compound": "COc1ccc(-c2nnc(SCc3nnc(-c4ccccc4)o3)n2-c2ccccc2)cc1", "activity change, negative = cytotoxicity": "inactive: -12.1%"}, {"compound": "COc1ccc(-n2c(CC3C(=O)Nc4ccc(C)cc43)nc3ccccc3c2=O)cc1", "note": "(centres undefined)", "activity change, negative = cytotoxicity": "inactive: 13.8%"}, {"compound": "COc1ccc(NC(=O)CCCS(=O)(=O)c2nc(-c3ccccc3OC)cc(C(F)(F)F)n2)c(OC)c1", "Potency": "inconclusive: 31.6 µM [cytotoxic, single point]"}, {"compound": "C=C(C)C(O)/C=C/CCCCCCC", "note": "(centres undefined)", "activity change, negative = cytotoxicity": "inactive: -8.18% [at 9.22 µM]"}, {"compound": "COc1cc(S(=O)(=O)Nc2ccccc2C)ccc1Cl", "activity change, negative = cytotoxicity": "inactive: 8.23%"}, {"compound": "Cc1occc1-c1nc(-c2ccccn2)no1", "Potency": "active: 10 µM"}, {"compound": "CC(C)c1ccc(-c2noc(SCC(=O)N3CCN(c4ccccc4F)CC3)n2)cc1", "Potency": "inconclusive: 12.6 µM [cytotoxic, partial curve]"}, {"compound": "O=c1[nH]c(CSc2nnc(-c3ccncc3)n2Cc2ccco2)nc2ccccc12", "activity change, negative = cytotoxicity": "inactive: 8.28%"}, {"compound": "Cc1ccc(C)c(NS(=O)(=O)c2cc(C(=O)O)ccc2Cl)c1", "activity change, negative = cytotoxicity": "inactive: 7.7%"}, {"compound": "CCC1C(C#N)=C(N)OC2=C1C(=O)CC(C)(C)C2", "note": "(centres undefined)", "activity change, negative = cytotoxicity": "inactive: 4.83%"}, {"compound": "CCc1ccc(NC(=O)N2CCN(c3nnc(C)c4c(C)n(-c5ccc(Cl)cc5)nc34)CC2)cc1", "Potency": "inconclusive: 31.6 µM [cytotoxic, single point]"}, {"compound": "COc1cccc(NC(=O)c2csc3c2CCCCC3)c1", "Potency": "inconclusive: 14.1 µM [cytotoxic, partial curve, poor fit]"}, {"compound": "COc1ccc(-c2nnc(Nc3nc4c(OC)cccc4s3)o2)c(OC)c1", "Potency": "inconclusive: 12.6 µM [cytotoxic, single point]"}, {"compound": "Cc1c(C(=O)N2CCCC2)oc2c1-c1nn(CC(=O)NCc3ccccc3F)cc1CC2", "activity change, negative = cytotoxicity": "inactive: 9.12%"}, {"compound": "Cc1ccccc1CN1C(=O)C(O)(c2c[nH]c3ccccc23)c2cc(Cl)ccc21", "note": "(centres undefined)", "Potency": "inconclusive: 31.6 µM [cytotoxic, single point]"}, {"compound": "Cc1cc(C)c(NC(=O)Cn2nnc3sc4c(c3c2=O)CCC(C(C)(C)C)C4)c(C)c1", "note": "(centres undefined)", "Potency": "inconclusive: 12.6 µM [cytotoxic, single point]"}, {"compound": "CCCCN(CC)CCCNC(=O)c1ccc2c(c1)N(Cc1ccc(C)cc1)C(=O)c1ccccc1S2", "Potency": "inconclusive: 12.6 µM [cytotoxic, single point]"}, {"compound": "COc1cc2ccccc2cc1C(=O)Nc1ccc(N2CCN(C)CC2)cc1", "Potency": "inconclusive: 15.8 µM [cytotoxic, partial curve]"}, {"compound": "CCCC(=O)Nc1ccc(Cl)c(NC(=S)NC(=O)c2ccco2)c1", "Potency": "inconclusive: 0.0251 µM [cytotoxic, full curve, poor fit]"}]}]}
